The supplement of paper PMC3724861
This is one part of the list.

Each sequence was assayed on T1, Caupolican (Caup) homeodomain DNA-binding domain (assay: PBM E-score (8-mer, recovered from the published 9-mer minima) (E-score (dimensionless, -0.5 to 0.5)); Drosophila protein; higher = stronger relative binding preference, active = 0.31 or more).
T1 sequence: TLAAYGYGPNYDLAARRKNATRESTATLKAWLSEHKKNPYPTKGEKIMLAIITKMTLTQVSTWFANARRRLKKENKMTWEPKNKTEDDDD
How it was run: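 Caup's homeodomain DNA-binding domain (residues 214-303) was made by in vitro transcription and translation and applied at 100 nM to custom-designed protein binding microarrays. Each value is an enrichment score that gives relative binding preference for a short DNA word, with higher meaning stronger. The 8-mer values were recovered from published 9-mer scores, each of which was the minimum of its two constituent 8-mer scores. A cutoff of 0.31 marks candidate sites.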

| Sequence | PBM E-score |
| --- | --- |
| AGTTGATC | inactive: 0.0269 |
| ACTGCCAA | inactive: 0.0239 |
| AGACATGG | active: 0.329 |
| GTTTGTGA | inactive: 0.0985 |
| CCGATAGG | inactive: -0.0503 |
| AACTGAGC | inactive: -0.17 |
| ATCAATGG | inactive: -0.0483 |
| CGTCATGC | inactive: -0.0931 |
| AGACGTGA | inactive: 0.087 |
| ACAAGCGC | inactive: 0.171 |
| CTGCCACC | inactive: -0.208 |
| ACCGAATC | inactive: 0.0317 |
| CAGTCGCA | inactive: -0.143 |
| ACGCATCT | inactive: 0.0331 |
| GCATGTCC | active: 0.31 |
| ACGCATAG | inactive: 0.00458 |
| ATCGTGTA | active: 0.407 |
| CTCGGAAC | inactive: 0.01 |
| CTGTTCTA | inactive: 0.127 |
| CATGATAA | inactive: 0.219 |
| CGGCTCAG | inactive: -0.196 |
| TGTAGACA | active: ≥ 0.313 |
| ACGCATAT | inactive: 0.103 |
| CAATTATG | inactive: 0.161 |

| Sequence | PBM E-score |
| --- | --- |
| ACTGGCAT | inactive: -0.0433 |
| CGGGGCCA | inactive: -0.224 |
| CACACCTA | inactive: 0.0328 |
| AATCCCAA | inactive: -0.0093 |
| ATCAAACA | inactive: 0.282 |
| ATATTGAT | ≥ 0.165 |
| CCTCGTTC | inactive: -0.0243 |
| TATTACGA | inactive: 0.162 |
| TTTCGAAA | inactive: -0.0687 |
| AGCCGATG | inactive: -0.0816 |
| AAATTAAC | inactive: 0.125 |
| ACGGAGAT | inactive: -0.035 |
| ATTAGACA | inactive: 0.258 |
| GGGACCAC | inactive: -0.0946 |
| AGGTACTG | inactive: 0.0558 |
| ACTTAATG | inactive: 0.133 |
| AACTATTA | inactive: 0.178 |
| CCAACGAG | inactive: 0.00173 |
| CTGGTCCC | inactive: -0.148 |
| ATATGCAA | inactive: 0.123 |
| GTCGCTAA | inactive: 0.00491 |
| ATATTATG | inactive: 0.258 |
| CATCCTCG | inactive: 0.0101 |
| CTATTGAG | inactive: 0.0929 |

| Sequence | PBM E-score |
| --- | --- |
| GATTAATC | inactive: 0.0711 |
| AGCGTTCC | inactive: -0.0507 |
| ATTTGGTA | ≥ 0.155 |
| CGATTAAA | inactive: 0.0466 |
| GATCTGAC | inactive: 0.0711 |
| CTACTCTA | inactive: 0.0158 |
| CGGGTAAA | ≥ 0.075 |
| AGCGCGGC | inactive: -0.184 |
| CCCGGGTC | inactive: -0.214 |
| ACCGAGGG | inactive: -0.263 |
| CCTCACCA | inactive: -0.128 |
| AAGAAATG | inactive: 0.0551 |
| AGGGCTCG | inactive: -0.241 |
| ATTTTTGA | inactive: 0.0958 |
| AAGTGGTA | inactive: 0.162 |
| TATTAATA | inactive: 0.178 |
| CCATCGAG | inactive: -0.0133 |
| CCGCTCAG | inactive: -0.148 |
| CCAACTAC | inactive: 0.0722 |
| CTTCGCGC | inactive: -0.0901 |
| CAACACGG | inactive: 0.2 |
| ACGGACAC | inactive: 0.2 |
| CTCCTCGA | inactive: -0.0997 |
| CAGCCTAA | inactive: -0.0449 |

| Sequence | PBM E-score |
| --- | --- |
| AAGGGACT | inactive: -0.042 |
| GACACAGA | inactive: 0.155 |
| AAGATTCA | inactive: 0.0215 |
| AAGACTAT | inactive: 0.0648 |
| AATGGTTA | inactive: 0.0863 |
| CCACGCCG | inactive: -0.159 |
| AGATAATC | inactive: 0.00296 |
| GATCCAGA | inactive: 0.00644 |
| CAGCGATA | inactive: -0.0916 |
| AAGGCAGA | inactive: -0.0313 |
| CTCTGGTC | inactive: -0.112 |
| GTCTCCAC | inactive: -0.192 |
| CCCTATAA | inactive: -0.0217 |
| ACGTACTC | inactive: 0.0449 |
| CGATCCTC | inactive: 0.00131 |
| TCCATAAA | inactive: 0.0501 |
| CGTGTGAA | inactive: 0.102 |
| GCGATCTA | inactive: 0.00363 |
| CCAAGGAG | inactive: -0.16 |
| CAGGTTCA | inactive: 0.0663 |
| CTGGACTA | inactive: -0.0281 |
| AGCCATAT | inactive: 0.0268 |
| ATCGTGCA | inactive: 0.127 |
| ATCGAGAC | inactive: 0.0539 |

| Sequence | PBM E-score |
| --- | --- |
| AATCTACC | inactive: 0.0581 |
| GTCTGTTA | inactive: 0.161 |
| GTTCATAA | inactive: 0.11 |
| GACACCTA | inactive: 0.147 |
| CTATGAAA | inactive: 0.0131 |
| ATATAACA | active: 0.372 |
| CCATATAC | inactive: 0.171 |
| CAGCAGTC | inactive: -0.112 |
| AGGGCGGC | inactive: -0.277 |
| ACACTTCT | inactive: 0.138 |
| ATTGATAG | inactive: 0.0965 |
| AACCTTAC | inactive: 0.00708 |
| CTGTGGTA | inactive: 0.0585 |
| GCCAGAAA | inactive: -0.0768 |
| ACTGTCCG | inactive: 0.0148 |
| TACAACAA | active: 0.387 |
| TGCGTACA | inactive: 0.241 |
| CGCTGAGA | inactive: -0.154 |
| GCATCCAC | inactive: -0.0644 |
| GGTTTAAC | inactive: 0.0521 |
| ACTTTGGA | inactive: 0.0867 |
| CTGGGAAC | inactive: 0.0198 |
| AGTATACA | inactive: 0.309 |
| ACTGTTTG | inactive: 0.184 |

| Sequence | PBM E-score |
| --- | --- |
| GACTTAAA | inactive: 0.0556 |
| ACTCTCTC | inactive: -0.0355 |
| ATGCGTTG | inactive: 0.0845 |
| AATTGTAC | inactive: 0.258 |
| ACGGCCCG | inactive: -0.136 |
| CAGAGCAG | inactive: -0.0123 |
| ACAAGAAT | inactive: 0.307 |
| CTTAAGCC | inactive: -0.197 |
| CCCAACGC | inactive: -0.102 |
| ACTTCACA | inactive: 0.0893 |
| CAACATAC | inactive: 0.302 |
| GAGTGCGA | inactive: -0.149 |
| GTCCCCCA | inactive: -0.271 |
| CCTAAGAA | inactive: 0.0139 |
| ATATTCAA | inactive: 0.119 |
| GGACAAGA | inactive: 0.264 |
| ACCGGATC | inactive: 0.0436 |
| CCACGTAA | inactive: -0.0791 |
| GCAATGCC | inactive: -0.134 |
| GATAGTCC | inactive: 0.0462 |
| AATTAGAT | inactive: 0.154 |
| GCATCGCA | inactive: -0.205 |
| GCCGAAAC | inactive: -0.0529 |
